In the supplement of paper PMC3334620:
Whole data set: some 33,000 sequences, median “E-score (-0.5 to 0.5)” near -0.04, cut for the highest 2% near 0.36. This is one part of the list.

The sequences below were run against T1, Hmlalpha2 (UniProt P0CY09) (assay: PBM E-score (8-mer binding enrichment) (E-score (-0.5 to 0.5)); higher = stronger / more preferred TF binding; most listed sequences are background and not binding sites). Settings: protein concentration: 200 nM; construct: GST-full length.
T1 sequence: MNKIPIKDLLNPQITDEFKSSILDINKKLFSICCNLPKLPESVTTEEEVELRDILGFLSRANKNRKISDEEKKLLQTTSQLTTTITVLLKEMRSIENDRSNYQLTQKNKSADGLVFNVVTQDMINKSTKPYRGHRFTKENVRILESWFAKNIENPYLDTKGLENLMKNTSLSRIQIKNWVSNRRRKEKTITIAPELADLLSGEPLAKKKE
Summary of the method: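 Detection of bound protein used fluorescent anti-GST, with scans normalised by masliner. The proteins were GST-tagged yeast transcription factors applied at about 100-200 nM to universal all-10-mer Agilent arrays made double-stranded by primer extension. Each ungapped eight-base word, pooled with its reverse complement, was scored with an E-score from the Universal PBM Analysis Suite.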

| Sequence | PBM E-score |
| --- | --- |
| CACACTGC | -0.12 |
| CAGTTCCA | -0.0481 |
| AGTCCTAT | -0.0214 |
| CCTCAACA | 0.302 |
| TCCCAACA | 0.106 |
| CGCTCAAG | -0.156 |
| CGAAGCAA | 0.133 |
| ACCCAGTC | -0.214 |
| CTTAAAGC | -0.115 |
| ATCCTGAG | -0.119 |
| CCACTGGA | -0.211 |
| ATGTGCCA | 0.0579 |
| CCTATCCC | -0.191 |
| AATTACAG | 0.307 |
| AGACGCCC | -0.281 |
| GCGCCACA | -0.0137 |
| AAATTTTA | 0.223 |
| CCAAAATC | -0.0034 |
| AACGTGAT | 0.112 |
| CCATGGCG | -0.0225 |
| CCGATTGA | 0.0466 |
| AAAATGCA | -0.126 |
| AACTCAGA | 0.139 |
| CCTTTCCG | -0.212 |
| CTTCACGC | 0.169 |

| Sequence | PBM E-score |
| --- | --- |
| CACAGTGC | -0.0482 |
| ATCCACTA | 0.012 |
| CTCCCGAA | -0.201 |
| AACGTATT | 0.265 |
| GGGGAGAC | -0.267 |
| AGCAGTAT | -0.129 |
| CAACATGA | 0.449 |
| CAGCTAAA | 0.0164 |
| GCCTTTCC | -0.228 |
| GCATATCA | 0.0306 |
| AAACCAAT | 0.0981 |
| GCGTTAAA | 0.366 |
| GGAAACCC | -0.159 |
| CCTTTTAA | 0.027 |
| CTGCGATA | -0.0208 |
| GACACATC | 0.00043 |
| AAGAGCCA | -0.0558 |
| GACACTCC | -0.082 |
| CCAGGAGC | -0.385 |
| AAGAGACC | -0.0122 |
| GGGATGTA | 0.328 |
| CTCATGGA | -0.142 |
| ATCCAATG | -0.0262 |
| ACGACCGA | 0.0153 |
| GTATTGAC | 0.138 |

| Sequence | PBM E-score |
| --- | --- |
| GGGGAAAC | -0.00316 |
| GTTTCTCA | -0.0506 |
| TAGAGGCA | -0.118 |
| AAGCTGGA | -0.128 |
| CACCATCA | -0.178 |
| AACTGGTG | -0.176 |
| CAAGCCCA | -0.0127 |
| CAATCGAA | -0.054 |
| GATATAGC | -0.0529 |
| AGATACGG | -0.045 |
| TAAAGGGA | -0.0824 |
| AAGTCCGA | -0.145 |
| GTCTAGGA | -0.0605 |
| ACCTGTGA | 0.166 |
| AGGTGTGG | -0.306 |
| GTATTTTA | 0.319 |
| AGATGGCG | -0.115 |
| CACCATAA | -0.106 |
| TACCAGCA | -0.0851 |
| ATCATTCG | -0.0837 |
| GGGAGCAC | -0.332 |
| AGTAGCAG | -0.146 |
| ATCGCGAG | -0.0629 |
| GATTGTAC | 0.133 |
| CCAATACA | 0.313 |

| Sequence | PBM E-score |
| --- | --- |
| GAAGTTAC | 0.13 |
| TCTGAGAA | -0.0505 |
| ACTTATAA | 0.109 |
| ATAAGTCA | 0.0549 |
| CAAGCCCG | -0.183 |
| GACGGCCA | -0.215 |
| AAACGTGT | 0.375 |
| ATAAAGAG | -0.0356 |
| CACTGATG | -0.0893 |
| GCGCCGTA | 0.132 |
| TCATGAGA | 0.0706 |
| CATGACGA | 0.051 |
| CAAAGGAG | -0.0938 |
| ACGGTACA | -0.0496 |
| AAGGGGGT | -0.219 |
| AATGGTCG | -0.106 |
| ATCCCGTC | 0.0483 |
| CAGTCCTC | -0.282 |
| CCCTGCCC | -0.239 |
| GCTTTGTA | 0.316 |
| ATTGCATG | 0.239 |
| CAAGCCGC | -0.136 |
| AACGATCC | -0.242 |
| AGTAAATG | 0.314 |
| ACTTTGAG | -0.0202 |

| Sequence | PBM E-score |
| --- | --- |
| CGGGTCGA | -0.175 |
| ACATGTGC | 0.352 |
| GATGCTGC | -0.159 |
| ACGGATTG | -0.155 |
| CCTACCGA | -0.229 |
| AAAGGGTG | -0.0988 |
| AACTACCG | -0.257 |
| CTCGGAAG | -0.132 |
| GACCTCTC | -0.0403 |
| CTAGAGAC | -0.3 |
| GGGGTTGA | -0.232 |
| GATAAACC | -0.0176 |
| AACATCGT | 0.15 |
| CGTTGGCA | -0.00267 |
| GTTAGGCA | -0.00765 |
| AATTACTC | 0.281 |
| CGCAATCC | -0.0707 |
| ACTGTCAG | -0.0236 |
| ACCGTGTG | 0.113 |
| GAGGTCTA | -0.0189 |
| ACTCCTTC | -0.201 |
| CGGCTTTC | -0.116 |
| AGCTAGAG | -0.122 |
| ACCCCTCT | -0.194 |
| CGGTGTAC | 0.0363 |

| Sequence | PBM E-score |
| --- | --- |
| CATAAATA | 0.142 |
| CTGAAAAC | 0.1 |
| TCGAACGA | -0.055 |
| ATACTGAC | 0.0396 |
| GAGGTATC | -0.205 |
| CCAAATAG | -0.0531 |
| CCCACGAG | -0.222 |
| CCGGCTAC | -0.146 |
| AGACTGTC | -0.109 |
| ACGTGGAG | -0.0611 |
| CCTCTTCG | -0.127 |
| ATGCCCTA | -0.295 |
| CTTGCCTC | 0.0275 |
| AGTATATA | 0.212 |
| GCGATGGA | -0.142 |
| AACGAGCC | 0.128 |
| AGCTTGCC | -0.108 |
| AGGACTCC | -0.326 |
| CGCCCCAC | -0.207 |
| CCACTAGA | -0.201 |
| ACCACCTA | -0.105 |
| ACGCGGTC | 0.186 |
| CACTGAAC | 0.0626 |
| ATCCCTAG | -0.00744 |
| CTGACGCC | -0.221 |

| Sequence | PBM E-score |
| --- | --- |
| CTGCCCCC | -0.223 |
| AAAGGTAG | -0.129 |
| AGCTCATG | 0.0858 |
| CTCTAAAG | -0.199 |
| ACTCATAA | -0.0412 |
| ACGCAACC | 0.193 |
| AAGGGCAC | -0.219 |
| GCATTGCA | -0.00304 |
| CGCGGCTA | 0.0299 |
| CGGAGTCC | -0.0041 |
| CACGACGA | 0.122 |
| AACGGTGA | -0.0705 |
| AATACAAT | 0.249 |
| ATCCGTTC | 0.0296 |
| CAAAACGA | 0.167 |
| CAAATTAA | 0.061 |
| ATGAGATC | 0.073 |
| AAGTGGAG | -0.0852 |
| TAAACAGA | 0.22 |
| ATCACCTA | -0.0987 |
| AATCATGC | -0.107 |
| CTCAAGCA | -0.0177 |
